Data reported in PubChem BioAssay AID1030 (National Center for Advancing Translational Sciences (NCATS), 2008).
The whole screen tested about 220,000 compounds, of which about 16,000 (7.3%) were called active. Inconclusive results, whose numbers are uncertain, are shown with a selection of clear calls. Calls come from the whole dose curve; as a rule, active = well fitted inhibition curve with a large enough effect (not every such curve was filed as active); inconclusive = small, poorly fitted or top-dose-only effect, or another doubt; inactive = no such curve, though single readings can be large or run the other way. Potencies of inconclusive entries are left out as doubtful fits.

Biological target: Aldehyde dehydrogenase 1A1 (Homo sapiens) (UniProt P00352)
Experiment: qHTS Assay for Inhibitors of Aldehyde Dehydrogenase 1 (ALDH1A1)
Details: Purified ALDH1A1, NADH fluorescence, propionaldehyde substrate; series mostly up to 75.3 µM
Potency is the fitted concentration of half-maximal effect; tags give direction and shape of the fitted curve.

UniProt P00352, sequence (P00352 whole entry, looked up): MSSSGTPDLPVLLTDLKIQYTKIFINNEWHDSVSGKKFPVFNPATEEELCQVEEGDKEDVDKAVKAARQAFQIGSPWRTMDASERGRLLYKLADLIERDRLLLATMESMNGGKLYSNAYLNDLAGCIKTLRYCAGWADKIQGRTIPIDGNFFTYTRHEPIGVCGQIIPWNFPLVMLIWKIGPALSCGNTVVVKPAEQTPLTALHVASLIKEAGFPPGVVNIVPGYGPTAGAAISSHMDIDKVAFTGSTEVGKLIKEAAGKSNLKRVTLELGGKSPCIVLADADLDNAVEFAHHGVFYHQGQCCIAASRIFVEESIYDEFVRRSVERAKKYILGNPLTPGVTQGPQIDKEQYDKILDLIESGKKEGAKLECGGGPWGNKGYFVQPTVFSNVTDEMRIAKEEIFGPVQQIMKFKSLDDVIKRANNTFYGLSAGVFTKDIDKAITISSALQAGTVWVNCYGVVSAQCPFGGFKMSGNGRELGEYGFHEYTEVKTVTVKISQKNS

Compound	Potency
Cc1ccc2[nH]c3c(=O)n(CCCN4CCOCC4)cnc3c2c1	inconclusive [inhibitor, partial curve]
COCC(=O)N1CCC2(CCCN(c3ncccn3)C2)CC1	inactive
O=C(Nc1ccccc1)N(CCCN1CCOCC1)Cc1cc2cc3c(cc2[nH]c1=O)OCCO3	inconclusive [inhibitor, single point]
COc1ccc(C(=O)Oc2ccc(=O)n(-c3ccccc3)n2)cc1	inconclusive [inhibitor, full curve]
CC(=O)Nc1ccc(NC(=O)c2cccc(-c3cc4ccccc4oc3=O)c2)cc1	inactive
CC(=O)NCC12CC3CC(C1)CC(C(=O)O)(C3)C2	inconclusive [inhibitor, single point]
O=C(CC1(O)C(=O)Nc2ccc(Br)cc21)c1ccc2c(c1)OCO2 (stereo unspecified)	inactive
CCN1C(=O)N(C)C2(c3ccccc3)N(C)C(=O)N(C)C12c1ccccc1 (stereo unspecified)	inactive
Cc1cccc(N=C2NC(=O)/C(=C/c3cccn3C)S2)c1	inconclusive [inhibitor, single point]
COc1ccc(Br)cc1CN1CCCC(C(=O)N2CCCCC2)C1 (stereo unspecified)	inconclusive [inhibitor, single point]
CSCCC(NC(=O)c1ccco1)C(=O)OCC(=O)Nc1sccc1C#N (stereo unspecified)	inconclusive [inhibitor, single point]
Cc1ccc2[nH]c(CN3CCC(CO)(CC4CCCCO4)CC3)c(C)c2c1 (stereo unspecified)	inactive
CC(C)Oc1ccc(C(=O)Nc2ccc(NC(=O)c3ccco3)c(Cl)c2)cc1	inconclusive [inhibitor, single point]
Cc1cccc(NC(=S)N2N=CCC2c2ccccc2)c1 (stereo unspecified)	inconclusive [inhibitor, single point]
O=C(N/C(C(=O)N1CCOCC1)=C(\Sc1ncccn1)c1ccccc1)c1ccccc1	inconclusive [inhibitor, single point]
Cc1nc2ccc(NC(=O)c3cccs3)cc2c(=O)n1Cc1ccc(Cl)cc1	inconclusive [inhibitor, single point]
O=C(COC(=O)c1cccs1)Nc1ccc(S(=O)(=O)N2CCOCC2)cc1	inactive
Cc1c(C#N)c(N)nc(Cl)c1C#N	inconclusive [inhibitor, single point]
O=C(Nc1ccc(-c2nc3ccccc3[nH]2)cc1)c1ccc(N2C(=O)CCC2=O)cc1	inconclusive [inhibitor, single point]
O=C(Nc1ccccc1)c1cccc(S(=O)(=O)Oc2ccc([N+](=O)[O-])cc2)c1	inactive
CCOC(=O)C1CCCN(C(=O)c2ccc(CNc3c(N4CCC(C)CC4)c(=O)c3=O)cc2)C1 (stereo unspecified)	inconclusive [inhibitor, single point]
COc1ccccc1OCC(=O)Nc1nnc(-c2ccco2)s1	active: 7.08 µM
CC(C)NC(=O)[C@@H]1C[C@@]1(C)[C@@H](NC(=O)OCc1ccccc1)c1ccccc1	inactive
CCc1c(C)c2cc(Cl)c(O)c(CN(C)C)c2oc1=O	inconclusive [inhibitor, partial curve]

Compound	Potency
COc1ccc(NC(=O)N/C=C/c2ccc(Cl)cc2)cc1	inconclusive [inhibitor, single point]
CCCC(=O)Nc1ccc2nc(SCC(=O)N3CCCC3)sc2c1	inactive
COc1ccc(NC(=O)N2CCCC3(CCN(C(=O)c4cccc(F)c4)CC3)C2)cc1	inconclusive [inhibitor, partial curve]
O=C(Nc1ccccc1)N1N=C(c2cccs2)CC1c1cccs1 (stereo unspecified)	inconclusive [inhibitor, full curve]
CC(C)OC(=O)CSc1nc2cccnc2n1C1CCCCC1	inconclusive [inhibitor, single point]
COCCn1c(=O)[nH]c(=O)c2c1nc(-c1ccc(-c3ccc(Cl)cc3[N+](=O)[O-])o1)n2Cc1ccccc1	inconclusive [inhibitor, partial curve]
Cc1ccc(S(=O)(=O)N(C)C)cc1NC(=S)N1CCc2ccccc21	active: 25.1 µM
CC1(C)CC(=O)C/C(=N/Nc2nc3ccccc3s2)C1	inconclusive [inhibitor, single point]
Nc1nonc1C(=O)NCCNC(=O)c1ccccc1F	inactive
CC(c1ccc(F)cc1)n1cc(C(=O)NCc2ccccn2)nn1 (stereo unspecified)	inactive
COc1ccc(C(C#N)Nc2ccccc2OC)cc1 (stereo unspecified)	inconclusive [inhibitor, partial curve]
COc1ccc(Cl)cc1-n1c(=S)sc2c(=O)[nH]c(SCC(=O)NCC3CCCO3)nc21 (stereo unspecified)	inactive
CS(=O)(=O)c1ccc2nc(NC(=O)c3cc(-c4ccccc4)nn3-c3ccccc3)sc2c1	inconclusive [inhibitor, partial curve]
Cc1cc(C(=O)COc2cccnc2[N+](=O)[O-])c(C)n1-c1ccccc1	active: 20 µM
COC(=O)c1ccc(CN(C(C)=O)c2ccccc2)o1	active: 20 µM
COc1ccc(NC(=O)c2c(C(F)(F)F)nn(C)c2SCc2ccccc2)cc1	active: 8.91 µM
COc1cc(NC(=O)c2noc3c2CCC3)c(OC)cc1Cl	inconclusive [inhibitor, partial curve]
Cc1cccc(/N=C/c2c(O)c3ccccc3oc2=O)n1	inconclusive [inhibitor, single point]
CCOc1ccc(-n2c(O)c(/C=N/c3ccnn3Cc3ccncc3)c3ccccc3c2=O)cc1	inconclusive [inhibitor, partial curve]
Clc1ccccc1Nc1ncnc2c1nnn2Cc1ccccc1	inconclusive [inhibitor, single point]
COc1ccc2nc(N/C(N)=N/C(=S)Nc3cccc(C)c3)nc(C)c2c1	inconclusive [inhibitor, single point]
O=C(NC(c1ccccc1)c1ccccc1)c1ccc(S(=O)(=O)C(F)F)cc1	inactive
Cc1onc(-c2ccccc2)c1C(=O)Nc1ccon1	inconclusive [inhibitor, single point]
CCc1sc(C(C2C(=O)CC(C)(C)CC2=O)C2C(=O)CC(C)(C)CC2=O)cc1[N+](=O)[O-]	active: 14.1 µM

Compound	Potency
NNc1nc(-c2ccccc2)cs1	inactive
O=c1c2ccccc2oc2nc3ccn(Cc4ccncc4)c(=O)c3cc12	inconclusive [inhibitor, partial curve]
CC(C)(C)C1CCC2(CC1)SCC(=O)N2c1ccccc1 (stereo unspecified)	inconclusive [inhibitor, partial curve, poor fit]
CCCCNc1nc(C)nc2c1nc(-c1ccccc1)n2CCN1CCCCC1	inconclusive [inhibitor, partial curve]
O=[N+]([O-])c1ccc(CCNc2cccc3ccccc23)c([N+](=O)[O-])c1	inconclusive [inhibitor, single point]
CS(=O)(=O)Nc1cccc(-c2cn3ccccc3n2)c1	inconclusive [inhibitor, single point]
Cc1ccc(Cl)cc1N1CCN(Cc2nnnn2Cc2ccco2)CC1	inconclusive [inhibitor, single point]
N#Cc1cc([N+](=O)[O-])ccc1NCCc1ccccn1	inconclusive [inhibitor, single point]
COc1ccc(C(=O)CSc2nnc(-c3ccccc3)o2)cc1	inconclusive [inhibitor, full curve]
C/C(=C\C(=O)c1sccc1Cl)N(C)C	inconclusive [inhibitor, single point]
O=C(Nc1nc2ccc([N+](=O)[O-])cc2s1)c1ccco1	inconclusive [inhibitor, single point]
O=[N+]([O-])c1ccccc1CNC1CCCCCC1	active: 14.1 µM
CCOC(=O)c1c(NC(=O)CSc2n[nH]c(-c3ccco3)n2)sc(C)c1C	inactive
CCC(C)N1C(=O)CCC1C(=O)NCc1ccc2c(c1)OCO2 (stereo unspecified)	inconclusive [inhibitor, single point]
CCCn1c2c(c(O)c(C(=O)Nc3ccc(OC)cc3)c1=O)CCCC2	inconclusive [inhibitor, single point]
COc1ccc(CC(=O)N2CCC(c3ccccc3)C2)cc1 (stereo unspecified)	inconclusive [inhibitor, partial curve]
C=CCNC(=O)c1ccccc1NC(=O)c1ccccc1SC	inconclusive [inhibitor, partial curve]
COc1cccc(/C=C/C(=O)c2cccc([N+](=O)[O-])c2)c1	inconclusive [inhibitor, single point]
Cc1cc(S(=O)(=O)N2CCN=C2c2ccccc2)c(C)cc1Cl	inactive
CC(C)(C)C1CCc2c(sc(NC(=O)C3CCCO3)c2C(N)=O)C1 (stereo unspecified)	inconclusive [inhibitor, single point]
COc1cc2[nH]c(=O)n(CCC(=O)NC3CCCC3)c(=O)c2cc1OC	inconclusive [inhibitor, single point]
CCOC(=O)c1ccc(NC(=S)NCC(O)c2ccccc2)cc1 (stereo unspecified)	inconclusive [inhibitor, single point]
Cc1ccccc1C1=NC(C(F)(F)F)(C(F)(F)F)c2c(n(-c3ccc(F)cc3)c(=O)[nH]c2=O)N1	inconclusive [inhibitor, single point]
